Assay results published in the supplement of paper PMC4967469.

What was measured:
PAC-1 = compound: C=CCc1cccc(/C=N/NC(=O)CN2CCN(Cc3ccccc3)CC2)c1O [PAC-1]; test: Viability of human cancer cell lines after 72 h of drug (GDSC screen); details: top dose 2.56 µM
Experimental: (§1)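 Human cancer cell lines in 384-well plates, medium with 10% serum, drug for 72 h over a 256-fold dose range (nine 2-fold or five 4-fold steps up to the top dose). Adherent lines were fixed and stained with the nucleic acid dye Syto60, suspension lines read with resazurin; signal relative to control wells, capped at 0 and 100%. One two-parameter sigmoid per drug and line, fitted in a mixed model over all curves with the slope shared within a line.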

BMS-708163 = compound: NC(=O)[C@@H](CCC(F)(F)F)N(Cc1ccc(-c2ncon2)cc1F)S(=O)(=O)c1ccc(Cl)cc1 [BMS-708163]; test: as above; details: top dose 5 µM; screen: GDSC drug entry 1072; top dose inferred
Experimental: as §1

Cell Line | AUC (PAC-1) | IC50 (PAC-1) [nM] | AUC (BMS-708163) | IC50 (BMS-708163) [µM]
PCI-38 (head and neck, adherent) | 0.979 | > 2560 | 0.895 | > 5
PE/CA-PJ15 (head and neck, adherent) | 0.986 | > 2560 | 0.985 | > 5
PFSK-1 (medulloblastoma, adherent) | 0.961 | > 2560 | 0.895 | > 5
PL4 (pancreas, adherent) | 0.986 | > 2560 | 0.973 | > 5
PL18 (pancreas, adherent) | 0.966 | > 2560 | 0.969 | > 5
RCM-1 (large intestine, adherent) | 0.979 | > 2560 | 0.929 | > 5
RD (rhabdomyosarcoma, adherent) | 0.985 | > 2560 | 0.912 | > 5
RERF-GC-1B (stomach, adherent) | 0.844 | 2150 | 0.949 | > 5
RERF-LC-KJ (lung adenocarcinoma, adherent) | 0.813 | 1440 | 0.984 | > 5
RERF-LC-MS (lung adenocarcinoma, adherent) | 0.984 | > 2560 | 0.913 | > 5
RERF-LC-Sq1 (lung squamous cell carcinoma, adherent) | 0.965 | > 2560 | 0.921 | > 5
RH-41 (rhabdomyosarcoma, adherent) | 0.885 | 2010 | 0.992 | > 5
RKN (ovary, adherent) | 0.977 | > 2560 | 0.977 | > 5
RO82-W-1 (thyroid, adherent) | 0.935 | > 2560 | 0.973 | > 5
RPMI-2650 (head and neck, adherent) | 0.948 | > 2560 | 0.873 | > 5
RPMI-7951 (melanoma, adherent) | 0.98 | > 2560 | 0.985 | > 5
RT4 (bladder, adherent) | 0.985 | > 2560 | 0.987 | > 5
RT-112 (bladder, adherent) | 0.89 | > 2560 | 0.944 | > 5
RVH-421 (melanoma, adherent) | 0.975 | > 2560 | 0.96 | > 5
SAS (head and neck, adherent) | 0.982 | > 2560 | 0.89 | > 5
SAT (head and neck, adherent) | 0.942 | > 2560 | 0.926 | > 5
SBC-3 (small cell lung carcinoma, adherent) | 0.981 | > 2560 | 0.963 | > 5
SBC-5 (small cell lung carcinoma, adherent) | 0.993 | > 2560 | 0.932 | > 5
SCC90 (head and neck, adherent) | 0.928 | > 2560 | 0.959 | > 5
SCC-4 (head and neck, adherent) | 0.971 | > 2560 | 0.913 | > 5

Cell Line | AUC (PAC-1) | IC50 (PAC-1) [nM] | AUC (BMS-708163) | IC50 (BMS-708163) [µM]
SCC-9 (head and neck, adherent) | 0.979 | > 2560 | 0.94 | > 5
SCC-25 (head and neck, adherent) | 0.941 | > 2560 | 0.909 | > 5
SF295 (glioma, adherent) | 0.915 | > 2560 | 0.984 | > 5
SJRH30 (rhabdomyosarcoma, adherent) | 0.868 | 2470 | 0.985 | > 5
SK-CO-1 (large intestine, adherent) | 0.985 | > 2560 | 0.882 | 4.78
SK-HEP-1 (liver, adherent) | 0.987 | > 2560 | 0.949 | > 5
SK-LU-1 (lung adenocarcinoma, adherent) | 0.947 | > 2560 | 0.917 | > 5
SK-MEL-3 (melanoma, adherent) | 0.873 | > 2560 | 0.974 | > 5
SK-MEL-24 (melanoma, adherent) | 0.982 | > 2560 | 0.968 | > 5
SK-MEL-28 (melanoma, adherent) | 0.927 | > 2560 | 0.984 | > 5
SK-MEL-30 (melanoma, adherent) | 0.925 | > 2560 | 0.982 | > 5
SK-MES-1 (lung squamous cell carcinoma, adherent) | 0.968 | > 2560 | 0.933 | > 5
SK-N-AS (neuroblastoma, adherent) | 0.978 | > 2560 | 0.98 | > 5
SK-N-SH (neuroblastoma, adherent) | 0.91 | > 2560 | 0.963 | > 5
SK-OV-3 (ovary, adherent) | 0.789 | 1460 | 0.981 | > 5
SKG-IIIa (cervix, adherent) | 0.979 | > 2560 | 0.979 | > 5
SKN (uterus, adherent) | 0.974 | > 2560 | 0.982 | > 5
SKN-3 (head and neck, adherent) | 0.983 | > 2560 | 0.945 | > 5
SN12C (kidney, adherent) | 0.984 | > 2560 | 0.971 | > 5
SNG-M (endometrium, adherent) | 0.824 | 1480 | 0.947 | > 5
SNU-182 (liver, adherent) | 0.946 | > 2560 | 0.978 | > 5
SNU-387 (liver, adherent) | 0.97 | > 2560 | 0.984 | > 5
SNU-398 (liver, adherent) | 0.973 | > 2560 | 0.949 | > 5
SNU-423 (liver, adherent) | 0.882 | > 2560 | 0.967 | > 5
SNU-449 (liver, adherent) | 0.838 | 1960 | 0.986 | > 5

Cell Line | AUC (PAC-1) | IC50 (PAC-1) [nM] | AUC (BMS-708163) | IC50 (BMS-708163) [µM]
STS-0421 (soft tissue, adherent) | 0.967 | > 2560 | 0.914 | > 5
SU8686 (pancreas, adherent) | 0.882 | > 2560 | 0.985 | > 5
SU-DHL-5 (B-cell lymphoma, suspension) | 0.686 | 458 | 0.971 | > 5
SUIT-2 (pancreas, adherent) | 0.8 | 1310 | 0.977 | > 5
SW13 (adrenal gland, adherent) | 0.987 | > 2560 | 0.988 | > 5
SW156 (kidney, adherent) | 0.938 | > 2560 | 0.981 | > 5
SW620 (large intestine, adherent) | 0.945 | > 2560 | 0.989 | > 5
SW626 (ovary, adherent) | 0.928 | > 2560 | 0.935 | > 5
SW780 (bladder, adherent) | 0.977 | > 2560 | 0.977 | > 5
SW837 (large intestine, adherent) | 0.861 | > 2560 | 0.979 | > 5
SW900 (lung squamous cell carcinoma, adherent) | 0.953 | > 2560 | 0.98 | > 5
SW948 (large intestine, adherent) | 0.98 | > 2560 | 0.967 | > 5
SW982 (soft tissue, adherent) | 0.916 | > 2560 | 0.962 | > 5
SW1088 (glioma, adherent) | 0.968 | > 2560 | 0.977 | > 5
SW1271 (small cell lung carcinoma, adherent) | 0.926 | > 2560 | 0.966 | > 5
SW1417 (large intestine, adherent) | 0.975 | > 2560 | 0.902 | > 5
SW1463 (large intestine, adherent) | 0.974 | > 2560 | 0.976 | > 5
SW1573 (lung adenocarcinoma, adherent) | 0.975 | > 2560 | 0.971 | > 5
SW1710 (bladder, adherent) | 0.895 | > 2560 | 0.951 | > 5
SW1783 (glioma, adherent) | 0.935 | > 2560 | 0.988 | > 5
SW1990 (pancreas, adherent) | 0.978 | > 2560 | 0.985 | > 5
Saos-2 (osteosarcoma, adherent) | 0.92 | > 2560 | 0.978 | > 5
SiHa (cervix, adherent) | 0.987 | > 2560 | 0.974 | > 5
T47D (breast, adherent) | 0.955 | > 2560 | 0.92 | > 5
T84 (large intestine, adherent) | 0.805 | 1320 | 0.949 | > 5

Cell Line | AUC (PAC-1) | IC50 (PAC-1) [nM] | AUC (BMS-708163) | IC50 (BMS-708163) [µM]
T98G (glioma, adherent) | 0.989 | > 2560 | 0.989 | > 5
T-24 (bladder, adherent) | 0.986 | > 2560 | 0.948 | > 5
T-T (oesophagus, adherent) | 0.981 | > 2560 | 0.939 | > 5
TCCSUP (bladder, adherent) | 0.975 | > 2560 | 0.976 | > 5
TE-11 (oesophagus, adherent) | 0.964 | > 2560 | 0.855 | 3.46
TGBC11TKB (stomach, adherent) | 0.977 | > 2560 | 0.989 | > 5
TGBC24TKB (biliary tract, adherent) | 0.932 | > 2560 | 0.949 | > 5
TMK-1 (stomach, adherent) | 0.984 | > 2560 | 0.986 | > 5
TOV-21G (ovary, adherent) | 0.984 | > 2560 | 0.948 | > 5
TOV-112D (ovary, adherent) | 0.923 | > 2560 | 0.983 | > 5
TT2609-C02 (thyroid, adherent) | 0.941 | > 2560 | 0.986 | > 5
TT (thyroid, adherent) | 0.978 | > 2560 | 0.97 | > 5
TYK-nu (ovary, adherent) | 0.974 | > 2560 | 0.981 | > 5
U031 (kidney, adherent) | 0.815 | 1470 | 0.922 | > 5
U251 (glioma, adherent) | 0.987 | > 2560 | 0.985 | > 5
U-2-OS (osteosarcoma, adherent) | 0.977 | > 2560 | 0.97 | > 5
U-118-MG (glioma, adherent) | 0.977 | > 2560 | 0.985 | > 5
UACC-62 (melanoma, adherent) | 0.986 | > 2560 | 0.91 | > 5
UACC-893 (breast, adherent) | 0.976 | > 2560 | 0.982 | > 5
UM-UC-3 (bladder, adherent) | 0.988 | > 2560 | 0.985 | > 5
UMC-11 (lung carcinoid, adherent) | 0.991 | > 2560 | 0.982 | > 5
VM-CUB-1 (bladder, adherent) | 0.989 | > 2560 | 0.989 | > 5
VMRC-MELG (melanoma, adherent) | 0.913 | > 2560 | 0.98 | > 5
VMRC-RCZ (kidney, adherent) | 0.925 | > 2560 | 0.912 | > 5
WM35 (melanoma, adherent) | 0.844 | 1850 | 0.976 | > 5

By IC50 is meant the dose at which the fit gives 50% viability; a limit (>, <) means that the fit lies beyond the doses tested. The AUC spans the tested range (256-fold, ending at the top dose) of the same fit; it is 1 without any effect and falls as sensitivity rises. For some of these results: An inferred top dose was derived from the fitted curves, not read from the paper. For some of these results: Where an entry number is given, a second screen of the drug exists; the two often differ.
